# Paper PMC4336329 (PLoS ONE, 2015)
# The whole screen tested about 310,000 compounds, of which about 2,200 (0.71%) showed an effect of 50% or more. Effects have a minus sign here. The list shows a part of the results.
# Target: human ether-à-go-go-related gene (hERG) potassium channel (human, UniProt Q12809)
# Experiment: primary screen, population patch clamp on CHO cells stably expressing hERG
# human ether-à-go-go-related gene (hERG) potassium channel, sequence (Q12809 whole entry, looked up): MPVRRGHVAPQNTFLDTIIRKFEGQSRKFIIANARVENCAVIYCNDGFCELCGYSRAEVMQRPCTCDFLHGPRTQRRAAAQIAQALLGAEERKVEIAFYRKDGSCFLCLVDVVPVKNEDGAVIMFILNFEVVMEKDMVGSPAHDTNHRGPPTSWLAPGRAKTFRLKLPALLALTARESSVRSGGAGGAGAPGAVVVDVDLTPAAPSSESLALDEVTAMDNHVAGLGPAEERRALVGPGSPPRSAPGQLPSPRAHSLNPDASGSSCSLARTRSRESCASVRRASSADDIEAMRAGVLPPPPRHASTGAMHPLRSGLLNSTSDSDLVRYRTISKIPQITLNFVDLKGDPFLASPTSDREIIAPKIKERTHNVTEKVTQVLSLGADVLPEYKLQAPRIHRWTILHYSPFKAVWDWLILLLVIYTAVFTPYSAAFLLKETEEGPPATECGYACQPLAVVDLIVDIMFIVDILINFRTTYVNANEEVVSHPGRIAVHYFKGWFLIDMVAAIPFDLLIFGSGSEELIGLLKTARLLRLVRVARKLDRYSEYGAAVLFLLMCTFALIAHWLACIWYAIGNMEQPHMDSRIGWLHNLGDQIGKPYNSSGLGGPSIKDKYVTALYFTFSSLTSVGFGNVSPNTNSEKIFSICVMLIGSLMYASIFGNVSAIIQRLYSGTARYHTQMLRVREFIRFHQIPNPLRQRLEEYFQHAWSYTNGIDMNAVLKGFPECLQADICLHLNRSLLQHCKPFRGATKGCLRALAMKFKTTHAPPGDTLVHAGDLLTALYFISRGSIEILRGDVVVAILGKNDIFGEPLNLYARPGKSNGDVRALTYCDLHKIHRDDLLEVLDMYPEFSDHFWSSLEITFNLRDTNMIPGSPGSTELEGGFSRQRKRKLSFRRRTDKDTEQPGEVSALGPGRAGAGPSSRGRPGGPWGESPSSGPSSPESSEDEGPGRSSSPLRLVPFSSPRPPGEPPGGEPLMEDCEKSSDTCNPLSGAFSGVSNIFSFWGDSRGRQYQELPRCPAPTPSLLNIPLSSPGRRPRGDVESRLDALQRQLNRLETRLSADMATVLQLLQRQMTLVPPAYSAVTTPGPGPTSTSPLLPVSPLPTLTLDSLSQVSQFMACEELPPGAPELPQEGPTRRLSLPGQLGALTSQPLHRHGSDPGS
row,SMILES,"hERG current change (%, negative = inhibition) at 1uM"
1,COc1cc(NC(=O)C2Cc3ccccc3CN2S(C)(=O)=O)cc(OC)c1 (stereo not shown),8.4%
2,Cc1cc2c(c(C)nn2-c2ccccc2)c(=O)o1,0.783%
3,COc1ccccc1OCC(=O)Nc1ccccn1,3.45%
4,CCOC(=O)c1c(C(=O)OCC)c(C)n(Cc2cc(OC)c(OC)c(OC)c2)c1C,7.35%
5,CC(=O)c1cccc(NC(=O)CN(C)S(=O)(=O)c2ccc3c(c2)CCC(=O)N3)c1,8.16%
6,CCOC(=O)c1c(C)[nH]c(C)c1S(=O)(=O)N(C)CC(=O)Nc1ccccc1C,22.4%
7,Cc1ccc(-n2cccn2)c([C@@H]2C[C@H]3CN(C)C(=O)[C@]34CCCN24)c1,-15%
8,CCCCC(=O)Nc1ccc2oc(-c3cccnc3)nc2c1,9.98%
9,O=C(COC(=O)c1ccc(S(=O)(=O)N2CCCC2)cc1)Nc1cccc(F)c1,12.8%
10,CCOCCCn1c(=S)[nH]c2cc3c(cc2c1=O)OCO3,11.2%
11,CC(NC(=O)COC(=O)CNS(=O)(=O)/C=C/c1ccccc1)c1ccccc1 (stereo not shown),11.2%
12,CCCCC(NC(=O)c1ccc(Cl)cc1)C(=O)O (stereo not shown),9.29%
13,O=C(CCCN1C(=O)CSc2ncccc21)N1CCN(Cc2ccccc2)CC1,14.1%
14,O=C(Nc1ccccc1)C1=C[C@H](c2ccc(C(F)(F)F)cc2)C[C@H](OCc2ccc(CO)cc2)O1,5.76%
15,Cc1cc(C)c(C(N)=O)c(NC(=O)Nc2ccccc2Cl)n1,0.96%
16,Cc1ccc(C)c(S(=O)(=O)NC(C)C(=O)Nc2ccc(-c3nc4ccccc4s3)cc2)c1 (stereo not shown),4.16%
17,Cn1c(N)nc2ccccc2c1=O,4.59%
18,COc1cc([N+](=O)[O-])ccc1NC(=S)NNC(=O)CCC(=O)Nc1ccccc1Cl,0.8%
19,CN(C)c1ccc(-c2nc3ccccc3n2C)cc1,-24.7%
20,COc1ccc(-c2[nH]nc3c2C(c2ccc(OC(=O)N4CCOCC4)cc2)C(C#N)=C(N)O3)cc1 (stereo not shown),9.35%
21,CC(C(=O)NC1CCCC1)N1CCN(S(=O)(=O)c2ccc(C(C)(C)C)cc2)CC1 (stereo not shown),-2.73%
22,Cc1c(Cl)ccc2c1NC(=O)[C@]21N[C@@H](CCC(N)=O)[C@H]2C(=O)N(c3ccc(F)cc3)C(=O)[C@H]21,8.29%
23,COc1ccc(NC(=O)Nc2ccc(C)cc2Br)c(OC)c1,10.1%
24,Clc1ccc(-c2nnc3cccc(Cl)n23)c(Cl)c1,6.15%
25,COc1ccc(-c2nnc(SCC(=O)NCC3CCCO3)o2)cc1 (stereo not shown),22.4%
26,O=C(NC1CCCCC1)C(c1cccs1)N(Cc1cccs1)C(=O)c1ccco1 (stereo not shown),10.7%
27,O=C(NC(=S)Nc1ccc(S(=O)(=O)Nc2ccccc2)cc1)C1CC1,7.24%
28,Cn1c(-c2cc3ccc(OC(=O)C(C)(C)C)cc3oc2=O)nc2ccccc21,4.98%

row,SMILES,"hERG current change (%, negative = inhibition) at 1uM"
1,CCCCOc1nc(N2CCOCC2)nc(C)c1[N+](=O)[O-],5.2%
2,COc1cccc(N(CC(=O)N2CCN(C)CC2)S(=O)(=O)c2ccc(C)cc2)c1,4.39%
3,CCOC(=O)N1CCN(C(=O)/C=C/c2ccc3c(c2)OCO3)CC1,4.33%
4,CC(=O)c1ccc(N2CCN(C(=O)C3CCCN(S(=O)(=O)c4c(C)[nH]c(=O)[nH]c4=O)C3)CC2)cc1 (stereo not shown),19%
5,COc1ccc(S(=O)(=O)N2CCN(c3ccccc3OC)CC2)cc1OC,7.66%
6,Cc1ccccc1S(=O)(=O)Nc1nc2ccccc2nc1N1CCc2ccccc2C1,14.3%
7,CCOC(=O)N1CCN(S(=O)(=O)c2cccc3ccc(C)nc23)CC1,0.132%
8,O=C(Nc1cccc(S(=O)(=O)NC2=NCCCCC2)c1)c1cc(-c2ccccc2Cl)nc2ccccc12,10.2%
9,CCc1ccc([C@@H]2CC=C(C(=O)O)CN2S(=O)(=O)c2ccc(C)cc2)cc1,13.6%
10,CC(/C=C\c1cccnc1)=C/C(=O)O,3.18%
11,CCOc1ccc(NC(=O)CN2C(=O)CSc3ccc(S(=O)(=O)N4CCOCC4)cc32)cc1,12.4%
12,CN1CCC(=NNC(=O)c2ccc(N(Cc3ccccc3Cl)S(C)(=O)=O)cc2)CC1,6.54%
13,C=CCN1C(=O)C(CC(=O)NCC)SC1=Nc1cc(Cl)ccc1Cl (stereo not shown),4.18%
14,CCC(C)c1ccccc1NC(=O)COC(=O)c1ccc(C)c(NC(=O)c2ccco2)c1 (stereo not shown),-3.56%
15,OCCC1CN(Cc2ccc3nsnc3c2)CCN1CCc1ccccc1 (stereo not shown),-73.7%
16,Cc1ccc(/C=N/N2CCN(c3ccccn3)CC2)o1,15%
17,c1ccc2nc3c(nc2c1)OCC1CCCCN31 (stereo not shown),7.92%
18,CC(C)CCNc1nc(N)c([N+](=O)[O-])c(N2CCCCCC2)n1,14%
19,CCOCCCNC(=O)C(NC(=O)CNC(C)=O)c1ccc(C)cc1 (stereo not shown),-3.41%
20,CCOC(=O)c1cc(C(C)(C)C)oc1CNC(=O)c1c(C)oc2c1CCCC2,5.37%
21,Cc1ccc2[nH]c(-c3ccccc3)c(CN(C)C)c(=O)c2c1,-4.19%
22,CC(=O)Nc1ccc(C(=O)OCC(=O)Nc2ccc([N+](=O)[O-])cc2C(F)(F)F)cc1,9.58%
23,Cc1cc(C(=O)COC(=O)c2ccc(O)cc2)c(C)n1CC1COc2ccccc2O1 (stereo not shown),0.163%
24,COc1ccccc1NC(=S)N1CCC(c2nc3cc(C)c(C)cc3[nH]2)CC1,-3.39%
25,CN1C(=O)C(=O)N(c2cccc(C(F)(F)F)c2)C1=O,13.2%
26,COc1cc(/C=N/NC(=O)C(=O)NCc2cccnc2)cc(OC)c1OC,11.9%
27,CCn1cc(S(=O)(=O)c2ccccc2)c(=O)c2cc(F)c(N3CCN(C)CC3)cc21,12.4%
